Laboratory results from PubChem BioAssay AID485294 (National Center for Advancing Translational Sciences (NCATS), 2010).
Screen size: about 370,000 compounds; about 150 (0.041%) were called active. The shares of active, inactive and inconclusive entries below differ from those in the screen. Calls follow the shape of the dose curve; as a rule, active = well fitted inhibition curve with a large enough effect; inconclusive = small, poorly fitted or top-dose-only effect; inactive = flat fitted curve, though single readings scatter. Potencies of inconclusive entries are left out as doubtful fits.

What follows are compounds tested against Beta-lactamase (Escherichia coli (strain K12)) (UniProt P00811) (assay: qHTS Inhibitors of AmpC Beta-Lactamase (assay with detergent)). Conditions: AmpC hydrolysis of nitrocefin, absorbance 480 nm, 0.01% Triton; activity change, negative = inhibition: at 114 µM (top of the series).
Outline: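 20 mM phosphate pH 7.0 + 0.01% (detergent screen) or 0.0001% Triton X-100; 5.3 nM AmpC reagent; cpd preinc 15 min RT; nitrocefin (800 uM stock) to start; A480 q20 s × 4 min; Activity was normalised to no-enzyme and no-compound control wells.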
Also: nearly all actives have a fitted effect of over 25% in size.
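For activity change, negative = inhibition in this document: 0% = no-compound wells and -100% = no-enzyme wells.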
Potency is read from the fitted curve at half-maximal effect; tags tell the direction and shape of the fitted curve.

Chain of UniProt P00811 (P00811 whole entry, looked up): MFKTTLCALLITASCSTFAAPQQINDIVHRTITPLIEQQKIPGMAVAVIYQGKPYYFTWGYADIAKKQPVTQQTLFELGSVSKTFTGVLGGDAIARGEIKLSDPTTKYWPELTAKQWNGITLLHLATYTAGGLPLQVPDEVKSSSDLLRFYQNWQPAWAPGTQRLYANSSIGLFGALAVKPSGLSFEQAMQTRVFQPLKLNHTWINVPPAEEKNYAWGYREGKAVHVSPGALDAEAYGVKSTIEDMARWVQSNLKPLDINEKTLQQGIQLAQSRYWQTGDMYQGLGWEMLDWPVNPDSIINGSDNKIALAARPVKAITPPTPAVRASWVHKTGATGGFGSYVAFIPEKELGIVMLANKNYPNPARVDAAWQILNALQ

Structure (SMILES) | Potency | activity change, negative = inhibition
COCCOC(=O)c1c(NC(=O)COC(=O)c2ccc(C)o2)sc(C(N)=O)c1C | inconclusive [inhibitor, full curve] | –
CCOc1ccc(CCNC(=O)CCCc2nnc3n(CCCOC)c(=O)c4sccc4n23)cc1 | – | inactive: 1.62%
O=C1CN(C(=O)c2ccccc2)c2ccccc2N1 | inconclusive [inhibitor, full curve, poor fit] | –
CCOC(=O)c1oc2ccccc2c1NC(=O)c1ccc2c(c1)OCO2 | – | inactive: -0.465%
CC1CCN(C(=O)CN2c3ccc(Br)cc3-c3ccccc3S2(=O)=O)CC1 | – | inactive: 20.8%
CCc1ccc(OCC(=O)Nc2cc3oc4ccccc4c3cc2OC)c(Br)c1 | – | inactive: 16.6%
O=C(CCc1ccccc1)NC1CCSC1=O (stereo unspecified) | inconclusive [inhibitor, full curve, poor fit] | –
COc1ccc(NC(=O)CN(C)C(=O)c2ccc(NS(=O)(=O)c3ccc(F)cc3)cc2)cc1 | inconclusive [inhibitor, full curve, poor fit] | –
Cc1cc(NC(=O)CSCC(=O)Nc2nc3ccc(F)cc3s2)no1 | – | inactive: -3.76%
CCc1ccc(C(=O)/C=C/NCc2ccc(F)cc2)cc1 | inconclusive [inhibitor, partial curve] | –
Cc1ccccc1-n1ncc2c1CC(C)(C)CC2NC(=O)CN1CCCC1=O (stereo unspecified) | inconclusive [inhibitor, full curve, poor fit] | –
C[n+]1c(-c2ccccc2)c2cc(N)ccc2c2ccc(N)cc21 | inconclusive [inhibitor, partial curve, poor fit] | –
Cc1ccc(-c2cc(N)n(Cc3ccc(Cl)cc3)n2)cc1 | inconclusive [inhibitor, partial curve, poor fit] | –
COc1ccccc1NC(NC(=O)c1cccnc1)C(Cl)(Cl)Cl (stereo unspecified) | inconclusive [inhibitor, full curve, poor fit] | –
COc1cc(NC(=S)N2CCN(C(=O)c3ccco3)CC2)c(OC)cc1Cl | inconclusive [inhibitor, single point] | –
CCN(CC(=O)Nc1ccc2c(c1)OCO2)Cc1nc2ccccc2c(=O)[nH]1 | inconclusive [inhibitor, full curve, poor fit] | –
CC(=O)N1CCc2c(sc(NC(=O)C3CC3)c2-c2nc3ccccc3s2)C1 | inconclusive [inhibitor, full curve] | –
COc1cccc(NC(=O)CSc2nnnn2C(C)C)c1 | inconclusive [inhibitor, full curve, poor fit] | –
O=c1cc(CSc2nnc(NC3CCCCC3)s2)nc2sccn12 | – | inactive: -4.36%
COCC(C)N=C1NN=C(c2c[nH]c3ccccc23)CS1 (stereo unspecified) | – | inactive: -4.11%
Cc1cc(Nc2ccccc2F)n2nc(Cc3ccc(Cl)cc3)nc2n1 | – | inactive: -7.24%
Cc1ccc(C(=O)Nc2ccc(N3CCN(C)CC3)cc2)cc1C | – | inactive: -11.8%

Structure (SMILES) | Potency | activity change, negative = inhibition
O=C(NN1C(=O)C2C3C=CC(C3)C2C1=O)c1ccccc1 (stereo unspecified) | inconclusive [inhibitor, single point] | –
CCCC1(C(=O)O)NC(c2ccccc2O)C2C(=O)N(c3cccc(Cl)c3)C(=O)C21 (stereo unspecified) | inconclusive [inhibitor, full curve, poor fit] | –
CCCCOc1ccc(OCCNS(=O)(=O)N(C)C)cc1 | inconclusive [inhibitor, full curve, poor fit] | –
Cc1ccc(NCc2nnc(SCC(=O)c3ccc4c(c3)OCCO4)o2)c(C)c1 | inconclusive [inhibitor, full curve, poor fit] | –
COc1ccc(S(=O)(=O)N2CCN(C)CC2)cc1C(=O)N1CCCCC1 | inconclusive [inhibitor, partial curve] | –
CC(=O)NCCn1c(C)cc2ccccc21 | inconclusive [inhibitor, full curve, poor fit] | –
COc1cccc2cc(C(=O)OC3CCN(C)CC3)c(=O)oc12 | inconclusive [inhibitor, partial curve] | –
COCCNC(=O)Cn1nc(C(F)(F)F)c(Br)c1C | inconclusive [inhibitor, partial curve, poor fit] | –
Cc1ccc(NC(=O)CN2CCC(NC(=O)c3ccccc3F)CC2)cc1C | inconclusive [inhibitor, single point] | –
CCOC(=O)N1CCN(C(=O)C(CC(C)C)NS(=O)(=O)c2ccc3c(c2)oc(=O)n3C)CC1 (stereo unspecified) | inconclusive [inhibitor, single point] | –
Cc1ccc2c(c1)/C(=N/N1C(=O)c3ccccc3C1=O)C(=O)N2 | inconclusive [inhibitor, single point] | –
CCC1CCCCN1C(=O)CSc1nnc(-c2ccc(Cl)cc2)o1 (stereo unspecified) | inconclusive [inhibitor, full curve] | –
C=CCc1c(C)c(C#N)c2nc3ccccc3n2c1NCCN(C)C | inconclusive [inhibitor, single point] | –
COCC(=O)Nc1nc2n(n1)C(c1ccc(Cl)cc1)CC(c1ccc(OC)cc1)N2 (stereo unspecified) | inconclusive [inhibitor, full curve] | –
COc1cccc(N2C(=O)N(c3ccccc3)C3CS(=O)(=O)CC32)c1 (stereo unspecified) | inconclusive [inhibitor, single point] | –
COC(=O)CC1=NN(c2ccc(OC)cc2)C(=O)/C1=C\c1ccc(Cl)cc1 | inconclusive [inhibitor, partial curve, poor fit] | –
Cc1ccsc1C(=O)N(C)CC(=O)Nc1ccccc1Br | inconclusive [inhibitor, single point] | –
O=C(O)CSc1nc2ccccc2c(=O)[nH]1 | – | inactive: -13.1%
COc1cccc(-n2nnnc2SCC(=O)NCCc2ccccc2)c1 | inconclusive [inhibitor, full curve] | –
O=c1c2c(nc3nc(CCc4ccccc4)[nH]n13)CCC2 | inconclusive [inhibitor, partial curve] | –
CCOc1ncccc1C(=O)OCC(=O)c1ccc(C)c(C)c1 | inconclusive [inhibitor, single point] | –
CCCCn1c(N)c(N(CCOC)C(=O)c2ccc(Br)s2)c(=O)[nH]c1=O | inconclusive [inhibitor, single point] | –

Structure (SMILES) | Potency | activity change, negative = inhibition
Cc1onc(-c2ccccc2)c1C(=O)NCc1cccc(Cl)c1 | inconclusive [inhibitor, full curve, poor fit] | –
N#Cc1ccc(Oc2cccc3cccnc23)c([N+](=O)[O-])c1 | inconclusive [inhibitor, full curve, poor fit] | –
O=C(CCN1C(=O)c2ccccc2C1=O)Nc1ccc(-c2nc3ccccc3o2)cc1 | – | inactive: 4.51%
CCc1[nH]nc(C(=O)N2CCCC(N3CCN(c4ccccc4C)CC3)C2)c1C (stereo unspecified) | inconclusive [inhibitor, single point] | –
COc1ccc2[nH]c(=O)c(CN(C)C(=O)c3ccncc3)cc2c1 | inconclusive [inhibitor, full curve] | –
COc1ccccc1NC(=O)C1=C(C)Nc2nnnn2C1c1ccccc1OC (stereo unspecified) | inconclusive [inhibitor, single point] | –
Cc1cc(C)c(NC(=O)C2CCN(C(=O)N3CC(C)Oc4ccc(Cl)cc43)CC2)c(C)c1 (stereo unspecified) | – | inactive: -0.513%
CSCCC(NC(=O)c1ccccc1)C(=O)N1CCN(C(c2ccccc2)c2ccccc2)CC1 (stereo unspecified) | – | inactive: -3.68%
CCN(CC)S(=O)(=O)c1ccc(N2CCOCC2)c(NC(=O)C(=O)c2c(-c3ccccc3)cc3ccccn23)c1 | – | inactive: 4.2%
Cc1cccc(N(CC(=O)NC2CCCC2)C(=O)CNC(=O)c2ccco2)c1C | inconclusive [inhibitor, full curve] | –
Cc1ccc(OCCN2C(=O)C(=O)c3cc(C)ccc32)cc1 | inconclusive [inhibitor, single point] | –
Nc1cc(=O)[nH]c(SCc2nc3ccccc3n2Cc2ccccc2)n1 | inconclusive [inhibitor, full curve, poor fit] | –
Cc1ccc(-c2nnn(C(C)C(=O)N3c4ccccc4CCc4ccccc43)n2)cc1 (stereo unspecified) | inconclusive [inhibitor, single point] | –
CCc1ccc(N2CC(C(=O)NNC(=O)c3ccc(F)cc3)CC2=O)cc1 (stereo unspecified) | inconclusive [inhibitor, full curve, poor fit] | –
CCN(CC)Cc1c(O)c(Cl)cc2c(C)c(C)c(=O)oc12 | inconclusive [inhibitor, full curve, poor fit] | –
CC(C)CNC(=O)COC(=O)c1c2c(nc3ccccc13)CCC2 | – | inactive: 1.97%
C=CCN(c1ccccc1)S(=O)(=O)c1ccc2[nH]cc(C(=O)NCCOC)c(=O)c2c1 | inconclusive [inhibitor, full curve, poor fit] | –
Cc1ccc(N=Nc2[nH]c3ccccc3c2O)cc1 | inconclusive [inhibitor, partial curve, poor fit] | –
CC(C)Sc1ncc(Cl)c(C(=O)Nc2nc3ccc(S(C)(=O)=O)cc3s2)n1 | – | inactive: 23.5%
CCCC1=C(C(=O)OCC)C(c2ccccc2OCC)NC(=O)N1C (stereo unspecified) | inconclusive [inhibitor, full curve] | –
CC1=C(C)Cc2c(OC(=O)c3ccccc3)ccc(OC(=O)c3ccccc3)c2C1 | inconclusive [inhibitor, full curve, poor fit] | –
CCC(=NC1CCN(Cc2ccccc2)CC1)c1c(O)[nH]c(=O)[nH]c1=O | inconclusive [inhibitor, partial curve, poor fit] | –
